The results in this text go back to PMC12820563, “FoxP3 forms a head-to-head dimer in vivo and stabilizes its multimerization on adjacent microsatellites”.

The list shows a part of the results.

For this assay, the target named is T1, MBP-FoxP1dN (Mus musculus, UniProt P58462 326-579).
T1 sequence: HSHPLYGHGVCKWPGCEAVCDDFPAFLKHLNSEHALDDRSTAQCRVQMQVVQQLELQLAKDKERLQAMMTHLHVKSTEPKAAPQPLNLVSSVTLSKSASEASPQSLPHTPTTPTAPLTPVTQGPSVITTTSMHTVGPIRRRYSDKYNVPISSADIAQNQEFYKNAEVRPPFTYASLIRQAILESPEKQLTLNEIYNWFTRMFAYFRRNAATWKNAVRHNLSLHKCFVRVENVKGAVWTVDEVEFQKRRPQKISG
Nature of the assay: PD-seq (MBP pull-down with sequencing); 20 mM Tris-HCl pH 7.5, 100 mM NaCl, 1.5 mM MgCl2, 0.4 uM protein, 0.1 uM dsDNA library, 30 min, room temperature, amylose pull-down; high values mean tight binding. The conditions noted are these: protein: recombinant; tags: His6-MBP; chain copies: 2; dsDNA, one strand shown. In short, it runs like this:
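Binding is given as reads-per-million enrichment, pull-down over input, with replicates pooled. The bait was an N-terminus-lacking mouse FoxP3 or FoxP1 fragment with a His6-MBP tag, expressed in E. coli and used at 0.4 µM with 0.1 µM Klenow-filled degenerate double-stranded DNA library for 30 min at room temperature in Tris pH 7.5 buffer with NaCl and MgCl2. Amylose resin pull-down with three washes was followed by proteinase K release, PCR barcoding and Illumina sequencing.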
As to “GATGATTGTTCTCCCAGCTGATGAATTGGAGACTTCGAGTAAACAAATTTTCCTAATCTTTCTGTTCAAGCGCCATCTAC”, the binding signal was 0.819 RPM ratio (pull-down/input).

On to “GATGATTGTTCTCCCAGCTGATGAATTATGGTTTTCGAGTAAACAAATTTTCCTAATCTTTCTGTTCAAGCGCCATCTAC”, for which the binding signal was 1.24 RPM ratio (pull-down/input).

As for “GATGATTGTTCTCCCAGCTGATGAATTAACAATATCGAGTAAACAAATTTTCCTAATCTTTCTGTTCAAGCGCCATCTAC”, the binding signal was 1.87 RPM ratio (pull-down/input).

On to “GATGATTGTTCTCCCAGCTGATGAATTCAGTGGCTCGAGTAAACAAATTTTCCTAATCTTTCTGTTCAAGCGCCATCTAC”, for which the binding signal is 0.835 RPM ratio (pull-down/input).

For “GATGATTGTTCTCCCAGCTGATGAATTCCTAGGTTCGAGTAAACAAATTTTCCTAATCTTTCTGTTCAAGCGCCATCTAC”, the binding signal was 0.762 RPM ratio (pull-down/input).

Consider “GATGATTGTTCTCCCAGCTGATGAATTTACATGTTCGAGTAAACAAATTTTCCTAATCTTTCTGTTCAAGCGCCATCTAC”, for which the binding signal was 1.31 RPM ratio (pull-down/input).

As for “GATGATTGTTCTCCCAGCTGATGAATTGGCCCCGTCGAGTAAACAAATTTTCCTAATCTTTCTGTTCAAGCGCCATCTAC”, the binding signal is 0.748 RPM ratio (pull-down/input).

Turning to “GATGATTGTTCTCCCAGCTGATGAATTGCGTGTTTCGAGTAAACAAATTTTCCTAATCTTTCTGTTCAAGCGCCATCTAC”, the binding signal is 1.16 RPM ratio (pull-down/input).

In the case of “GATGATTGTTCTCCCAGCTGATGAATTACGAAAGTCGAGTAAACAAATTTTCCTAATCTTTCTGTTCAAGCGCCATCTAC”, the binding signal was 0.914 RPM ratio (pull-down/input).

On to “GATGATTGTTCTCCCAGCTGATGAATTGGTGAATTCGAGTAAACAAATTTTCCTAATCTTTCTGTTCAAGCGCCATCTAC”, for which the binding signal was 1.01 RPM ratio (pull-down/input).

Take “GATGATTGTTCTCCCAGCTGATGAATTTGTAAAGTCGAGTAAACAAATTTTCCTAATCTTTCTGTTCAAGCGCCATCTAC”: the binding signal is 1.08 RPM ratio (pull-down/input).

“GATGATTGTTCTCCCAGCTGATGAATTTCTTATCTCGAGTAAACAAATTTTCCTAATCTTTCTGTTCAAGCGCCATCTAC”: the binding signal is 0.829 RPM ratio (pull-down/input).

With “GATGATTGTTCTCCCAGCTGATGAATTCCCGGCTTCGAGTAAACAAATTTTCCTAATCTTTCTGTTCAAGCGCCATCTAC”, the binding signal was 0.738 RPM ratio (pull-down/input).

As to “GATGATTGTTCTCCCAGCTGATGAATTTTCTGCGTCGAGTAAACAAATTTTCCTAATCTTTCTGTTCAAGCGCCATCTAC”, the binding signal is 1.03 RPM ratio (pull-down/input).

Turning to “GATGATTGTTCTCCCAGCTGATGAATTGTACGTTTCGAGTAAACAAATTTTCCTAATCTTTCTGTTCAAGCGCCATCTAC”, the binding signal is 1.04 RPM ratio (pull-down/input).

Turning to “GATGATTGTTCTCCCAGCTGATGAATTCTAACCCTCGAGTAAACAAATTTTCCTAATCTTTCTGTTCAAGCGCCATCTAC”, the binding signal is 0.828 RPM ratio (pull-down/input).

Regarding “GATGATTGTTCTCCCAGCTGATGAATTAAGCTTATCGAGTAAACAAATTTTCCTAATCTTTCTGTTCAAGCGCCATCTAC”, the binding signal is 1.03 RPM ratio (pull-down/input).

With “GATGATTGTTCTCCCAGCTGATGAATTTAGCCGGTCGAGTAAACAAATTTTCCTAATCTTTCTGTTCAAGCGCCATCTAC”, the binding signal is 0.826 RPM ratio (pull-down/input).

For the sequence “GATGATTGTTCTCCCAGCTGATGAATTTCACATATCGAGTAAACAAATTTTCCTAATCTTTCTGTTCAAGCGCCATCTAC”, the binding signal was 0.942 RPM ratio (pull-down/input).

As to “GATGATTGTTCTCCCAGCTGATGAATTAGAAGTATCGAGTAAACAAATTTTCCTAATCTTTCTGTTCAAGCGCCATCTAC”, the binding signal is 1.02 RPM ratio (pull-down/input).

“GATGATTGTTCTCCCAGCTGATGAATTACGGACTTCGAGTAAACAAATTTTCCTAATCTTTCTGTTCAAGCGCCATCTAC”: the binding signal is 0.994 RPM ratio (pull-down/input).

Consider “GATGATTGTTCTCCCAGCTGATGAATTACCTGCCTCGAGTAAACAAATTTTCCTAATCTTTCTGTTCAAGCGCCATCTAC”, for which the binding signal was 0.965 RPM ratio (pull-down/input).

Consider “GATGATTGTTCTCCCAGCTGATGAATTTTGTCAGTCGAGTAAACAAATTTTCCTAATCTTTCTGTTCAAGCGCCATCTAC”, for which the binding signal is 0.995 RPM ratio (pull-down/input).

Regarding “GATGATTGTTCTCCCAGCTGATGAATTGACCCATTCGAGTAAACAAATTTTCCTAATCTTTCTGTTCAAGCGCCATCTAC”, the binding signal is 0.957 RPM ratio (pull-down/input).

In the case of “GATGATTGTTCTCCCAGCTGATGAATTTACAGTATCGAGTAAACAAATTTTCCTAATCTTTCTGTTCAAGCGCCATCTAC”, the binding signal was 1.2 RPM ratio (pull-down/input).

Regarding “GATGATTGTTCTCCCAGCTGATGAATTCTCTCTCTCGAGTAAACAAATTTTCCTAATCTTTCTGTTCAAGCGCCATCTAC”, the binding signal is 0.81 RPM ratio (pull-down/input).

With “GATGATTGTTCTCCCAGCTGATGAATTCCTTAAGTCGAGTAAACAAATTTTCCTAATCTTTCTGTTCAAGCGCCATCTAC”, the binding signal was 0.845 RPM ratio (pull-down/input).

Turning to “GATGATTGTTCTCCCAGCTGATGAATTTGTGAAGTCGAGTAAACAAATTTTCCTAATCTTTCTGTTCAAGCGCCATCTAC”, the binding signal was 1.09 RPM ratio (pull-down/input).

As for “GATGATTGTTCTCCCAGCTGATGAATTTTGCGTTTCGAGTAAACAAATTTTCCTAATCTTTCTGTTCAAGCGCCATCTAC”, the binding signal is 1.09 RPM ratio (pull-down/input).

With “GATGATTGTTCTCCCAGCTGATGAATTGTAAGAATCGAGTAAACAAATTTTCCTAATCTTTCTGTTCAAGCGCCATCTAC”, the binding signal was 1.05 RPM ratio (pull-down/input).

Take “GATGATTGTTCTCCCAGCTGATGAATTTCTGGTGTCGAGTAAACAAATTTTCCTAATCTTTCTGTTCAAGCGCCATCTAC”: the binding signal was 0.842 RPM ratio (pull-down/input).
